Measurements as given in the supplement of paper PMC9151546.
Structures can show the parent of a compound that is named as a salt. Single values are uncertain, as repeats are few or missing.

Assays:
CHO-K1 [1] = test: micronucleus frequency (% of nucleated events); higher = more micronuclei (genotoxic)
CHO-K1 [2] = test: hypodiploid nuclei frequency (% of nucleated events); higher = more hypodiploid events (aneugenic)
Procedure: (§1)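 Flow-cytometric in vitro micronucleus assay (Litron MicroFlow) in CHO-K1 cells in 96-well plates, 19 concentrations (4.5-200 µM, n=1 per concentration). Without S9, cells were exposed for 24 h and sampled at 48 h. With Aroclor 1254-induced rat liver S9, cells were exposed for 3-4 h and sampled at 27-28 h. Read-outs are %MN and %hypodiploid nuclei relative to nucleated events, and relative survival as the nuclei-to-bead ratio versus the 1% DMSO vehicle control (x100).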

CHO-K1 [3] = test: relative survival (nuclei to bead ratio vs DMSO control) (% of vehicle control); higher = more surviving cells
Procedure: as §1
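For hypodiploid nuclei frequency (% of nucleated events) in this document: hypodiploid nuclei gated on a flow cytometer with 488 nm excitation after SYTOX Green staining, cultures at 37 °C, positive controls vinblastine without S9 and cyclophosphamide with S9.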
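For micronucleus frequency (% of nucleated events) in this document: cells lysed with nuclei stained by SYTOX Green, then micronucleus-gated events counted against nucleated events by flow cytometry with 488 nm excitation.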
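For relative survival (nuclei to bead ratio vs DMSO control) in this document: Lysed-cell nuclei stained with SYTOX Green and counted against counting beads by flow cytometry at 488 nm excitation, with vinblastine (no S9) and cyclophosphamide (plus S9) as positive controls.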

CN(C)CCCN1c2ccccc2Sc2ccc(Cl)cc21 [Chlorpromazine hydrochloride]
Conditions | hypodiploid nuclei frequency, CHO-K1 [2] [%] | micronucleus frequency, CHO-K1 [1] [%] | relative survival, CHO-K1 [3]
concentration: 4.5 (µM), S9 metabolic activation: with S9, exposure time: 3-4 hours | 0.34 | 3 | 114
concentration: 4.5 (µM), S9 metabolic activation: without S9, exposure time: 24 hours | 0.66 | 1.24 | 97.1
concentration: 5.63 (µM), S9 metabolic activation: with S9, exposure time: 3-4 hours | 0.36 | 2.28 | 99.2
concentration: 5.63 (µM), S9 metabolic activation: without S9, exposure time: 24 hours | 0.44 | 1.18 | 90.8
concentration: 7.04 (µM), S9 metabolic activation: with S9, exposure time: 3-4 hours | 0.3 | 2.58 | 102
concentration: 7.04 (µM), S9 metabolic activation: without S9, exposure time: 24 hours | 0.54 | 1.58 | 86.7
concentration: 8.8 (µM), S9 metabolic activation: with S9, exposure time: 3-4 hours | 0.24 | 1.94 | 94.5
concentration: 8.8 (µM), S9 metabolic activation: without S9, exposure time: 24 hours | 0.56 | 1.1 | 95.2
concentration: 11 (µM), S9 metabolic activation: with S9, exposure time: 3-4 hours | 0.32 | 2.84 | 125
concentration: 11 (µM), S9 metabolic activation: without S9, exposure time: 24 hours | 0.76 | 1.42 | 86.4
concentration: 13.7 (µM), S9 metabolic activation: with S9, exposure time: 3-4 hours | 0.3 | 1.54 | 99.2
concentration: 13.7 (µM), S9 metabolic activation: without S9, exposure time: 24 hours | 0.5 | 1.18 | 84.7
concentration: 17.2 (µM), S9 metabolic activation: with S9, exposure time: 3-4 hours | 0.4 | 2.2 | 110
concentration: 17.2 (µM), S9 metabolic activation: without S9, exposure time: 24 hours | 1.78 | 1.14 | 82.7
concentration: 21.5 (µM), S9 metabolic activation: with S9, exposure time: 3-4 hours | 0.4 | 2.08 | 154
concentration: 21.5 (µM), S9 metabolic activation: without S9, exposure time: 24 hours | 0.74 | 1.48 | 67.6
concentration: 26.8 (µM), S9 metabolic activation: with S9, exposure time: 3-4 hours | 0.14 | 1.9 | 94.1
concentration: 26.8 (µM), S9 metabolic activation: without S9, exposure time: 24 hours | 1.12 | 2.12 | 72.2
concentration: 33.6 (µM), S9 metabolic activation: with S9, exposure time: 3-4 hours | 0.3 | 2.12 | 99.2
concentration: 33.6 (µM), S9 metabolic activation: without S9, exposure time: 24 hours | 2.12 | 2.92 | 57
concentration: 41.9 (µM), S9 metabolic activation: with S9, exposure time: 3-4 hours | 0.24 | 2.22 | 89.8
concentration: 41.9 (µM), S9 metabolic activation: without S9, exposure time: 24 hours | 1.82 | 3.58 | 47.7
concentration: 52.4 (µM), S9 metabolic activation: with S9, exposure time: 3-4 hours | 0.38 | 2.16 | 65.6
concentration: 52.4 (µM), S9 metabolic activation: without S9, exposure time: 24 hours | 1.18 | 5.4 | 48.8
concentration: 65.5 (µM), S9 metabolic activation: with S9, exposure time: 3-4 hours | 0.33 | 5.31 | 52
concentration: 65.5 (µM), S9 metabolic activation: without S9, exposure time: 24 hours | – | – | 34.7
concentration: 81.9 (µM), S9 metabolic activation: with S9, exposure time: 3-4 hours | 0.34 | 6.63 | 45
concentration: 81.9 (µM), S9 metabolic activation: without S9, exposure time: 24 hours | – | – | 7.92
concentration: 102 (µM), S9 metabolic activation: with S9, exposure time: 3-4 hours | 0.36 | 5.16 | 57.3
concentration: 102 (µM), S9 metabolic activation: without S9, exposure time: 24 hours | – | – | 0.77
concentration: 128 (µM), S9 metabolic activation: with S9, exposure time: 3-4 hours | 0.2 | 1.76 | 64.6
concentration: 128 (µM), S9 metabolic activation: without S9, exposure time: 24 hours | – | – | 0.06
concentration: 160 (µM), S9 metabolic activation: with S9, exposure time: 3-4 hours | – | – | 38
concentration: 200 (µM), S9 metabolic activation: with S9, exposure time: 3-4 hours | – | – | 7.24
concentration: 200 (µM), S9 metabolic activation: without S9, exposure time: 24 hours | – | – | 0.04
